The whole screen tested about 310,000 compounds, of which about 2,200 (0.71%) showed an effect of 50% or more. The effect is printed as a negative number. This is one part of the list.
These molecules were tested against human ether-à-go-go-related gene (hERG) potassium channel (human, UniProt Q12809) (assay: primary screen, population patch clamp on CHO cells stably expressing hERG).
Sequence of human ether-à-go-go-related gene (hERG) potassium channel (Q12809 whole entry, looked up): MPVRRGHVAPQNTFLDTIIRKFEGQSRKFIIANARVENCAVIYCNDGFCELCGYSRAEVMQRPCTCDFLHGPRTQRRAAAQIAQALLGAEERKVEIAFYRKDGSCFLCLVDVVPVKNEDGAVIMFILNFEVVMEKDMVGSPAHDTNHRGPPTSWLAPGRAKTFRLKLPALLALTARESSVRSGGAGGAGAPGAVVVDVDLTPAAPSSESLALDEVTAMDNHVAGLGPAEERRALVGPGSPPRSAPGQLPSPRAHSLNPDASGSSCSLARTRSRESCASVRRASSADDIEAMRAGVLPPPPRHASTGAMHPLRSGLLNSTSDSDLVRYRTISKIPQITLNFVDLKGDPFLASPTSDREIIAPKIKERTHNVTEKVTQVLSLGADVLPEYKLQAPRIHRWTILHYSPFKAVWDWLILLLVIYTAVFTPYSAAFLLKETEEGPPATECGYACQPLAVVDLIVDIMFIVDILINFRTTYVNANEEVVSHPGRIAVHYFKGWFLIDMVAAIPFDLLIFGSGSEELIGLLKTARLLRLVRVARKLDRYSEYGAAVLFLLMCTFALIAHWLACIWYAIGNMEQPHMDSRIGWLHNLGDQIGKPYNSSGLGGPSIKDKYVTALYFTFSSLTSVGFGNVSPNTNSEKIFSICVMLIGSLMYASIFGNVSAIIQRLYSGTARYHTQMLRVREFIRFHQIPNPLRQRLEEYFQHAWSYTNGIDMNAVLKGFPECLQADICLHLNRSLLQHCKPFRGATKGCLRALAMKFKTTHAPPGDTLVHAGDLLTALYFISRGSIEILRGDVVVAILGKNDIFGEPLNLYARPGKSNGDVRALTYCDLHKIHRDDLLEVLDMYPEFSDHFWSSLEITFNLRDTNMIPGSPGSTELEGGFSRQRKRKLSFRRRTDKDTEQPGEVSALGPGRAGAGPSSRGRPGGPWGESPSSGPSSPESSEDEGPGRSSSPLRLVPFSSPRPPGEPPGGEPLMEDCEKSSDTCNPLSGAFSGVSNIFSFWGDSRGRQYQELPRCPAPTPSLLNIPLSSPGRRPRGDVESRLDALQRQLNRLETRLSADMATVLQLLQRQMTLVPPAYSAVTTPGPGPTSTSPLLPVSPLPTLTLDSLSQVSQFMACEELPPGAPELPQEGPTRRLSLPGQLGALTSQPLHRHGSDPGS

Point of comparison: `Cc1ccc2nc3sc(C(=O)N4CCOCC4)c(N)c3cc2c1`, “hERG current change (%, negative = inhibition) at 1uM” value 9.05%. Against it:
- CCOc1ccc(NC(=O)n2ncc3c(C)cccc32)cc1 — higher, 15.5%
- CCC(=O)c1cc2c(cc1NC(=O)c1ccc(C)cc1)OCCO2 — higher, 11.1%
- O=C(Nc1ccccc1F)C1CCN(C(=O)Cc2ccccc2)CC1 — lower, 8.08%
- O=C(/C=C\c1ccccc1OC(=O)c1ccccc1F)c1cc2ccccc2o1 — lower, 3.89%
- CCOC(=O)C1CCCN(c2c(NCCN(C)Cc3ccccc3)c(=O)c2=O)C1 (stereo not drawn) — lower, 7.67%
- Cc1cc(-c2ccc(C)c(S(=O)(=O)NCc3ccc(OC(C)C)cc3)c2)on1 — lower, 7.33%
- CCOC(=O)Cn1nnnc1C(C(C)C)N(Cc1cccs1)Cc1cc2cc(C)ccc2[nH]c1=O (stereo not drawn) — lower, 2.89%
- NC(=O)C1CC(=O)N(c2ccc(OCc3ccc([N+](=O)[O-])cc3)cc2)C1 (stereo not drawn) — higher, 11.8%
- O=C(O)COc1ccc(/C=N/NC(=O)c2ccccc2Br)cc1 — higher, 12.8%
- CS(=O)(=O)N(CC(=O)N1CCOCC1)c1ccccc1Br — higher, 13%
- CCOC(=O)c1cc(-c2ccc(C)cc2)nc2nc(SC)[nH]c(=O)c12 — higher, 14.9%
- CC(NC(=O)CSc1nnc(-c2cccc(S(=O)(=O)N3CCCCC3)c2)o1)C12CC3CC(CC(C3)C1)C2 (stereo not drawn) — lower, 8.71%
- COc1ccc(-c2ccc(=O)[nH]n2)cc1 — lower, -4.86%
- CCCCN1C(=O)/C(=C(/C#N)C(=O)N2CCCC2)c2ccccc21 — lower, 4.53%
- O=C(Nc1nc(-c2ccccc2Cl)cs1)c1cccnc1 — lower, 4.43%
- COCCNC(=O)C1Cc2cc(S(=O)(=O)N3CCCC3)ccc2N1C(C)=O (stereo not drawn) — higher, 12.2%
- COc1ccc(S(=O)(=O)N2CCOCC2)cc1NC(=O)COc1ccccc1OC — higher, 21.2%
- O=C(C1=C[C@H](C2CC2)C[C@H](OCc2ccc(CO)cc2)O1)N1CCN(Cc2ccc3c(c2)OCO3)CC1 — lower, -7.21%
- Cc1ccc(S(=O)(=O)c2cc3c(=O)n4ccccc4nc3n(Cc3ccco3)c2=N)cc1C — lower, -6.2%
- Cc1cc(NC(=O)CO/N=C/c2ccc3c(c2)OCO3)ccc1Br — higher, 14.7%
- C/C(=N\NC(=O)c1cccnc1)c1ccc(OC2OCCOC2Oc2ccc(/C(C)=N/NC(=O)c3cccnc3)cc2)cc1 (stereo not drawn) — lower, -0.665%
- Cc1[nH]c2ccccc2c1C(=O)CN1CCSCC1 — lower, 7.96%
- O=C(Cn1nc(-c2ccccc2)c2ccccc2c1=O)Nc1ccc(O)cc1 — lower, 0.253%
- Cc1ccc(NS(=O)(=O)c2ccc(Cl)s2)cc1S(=O)(=O)N(C)C — lower, 7.95%
- CCCc1cc(C(=O)NNC(=S)NC(C)c2ccccc2)cs1 (stereo not drawn) — lower, 6.74%
- Cc1ccc(CCN2CC(C(=O)NCc3ccco3)CC2=O)cc1 (stereo not drawn) — higher, 11.3%
- Cc1cc(C)n(-c2nc(NCCN(C)C)c3c4c(sc3n2)COC(C)(C)C4)n1 — lower, 1.96%
- Cc1nn2cnnc2c(C)c1Cc1ccc(Cl)cc1 — higher, 9.11%
- COc1ccccc1N1CCN(C(=O)c2ccc(C(C)(C)C)cc2)CC1 — lower, -7.36%
- COc1ccc(CCNC(=O)C(=O)NCc2ccccn2)cc1 — higher, 11.9%
- O=C1c2ccccc2CCC1C(O)c1ccccn1 (stereo not drawn) — higher, 12.7%
- CCn1c(Cc2ccccc2)nnc1SCC(=O)Nc1ccccc1F — lower, 3.1%
- CN(Cc1cccc(Cl)c1Cl)CC(O)COc1ccccc1.O=C(O)C(=O)O (stereo not drawn) — lower, 7.55%
- C=CCn1c(N/N=C/c2ccc(O)cc2)nc2ccccc2c1=O — lower, -5.61%
- Cc1nc2ccccc2cc1C(=O)NCc1ccco1 — higher, 10.3%
- CC(=O)N(C1=C(N)C(=O)c2ccccc2C1=O)c1ccccc1 — lower, 8.45%
- COCCSc1ccccc1C(=O)N1CCN(c2ccccc2OC)CC1 — higher, 9.68%
- CCO/C=C1\C(=O)N(c2ccc(OCC)cc2)C(=O)c2ccccc21 — higher, 19.3%
- COc1ccc(CNC(=O)c2ccc(CS(=O)(=O)c3ccc(C)cc3)o2)cc1 — higher, 10%
- c1c2c(cc3sc(N4CCOCC4)nc13)OCO2 — higher, 15.3%
- Cc1ccccc1NNC(N)=S — lower, 0.34%
- O=S(=O)([N-]c1nc2ccccc2nc1-[n+]1ccc(CCCc2ccccc2)cc1)c1cccs1 — lower, 5.16%
- COc1cc2c(cc1OC)CN(C(=O)COc1ccc(C#N)cc1)CC2 — lower, -31.1%
- C=CCn1c(SCC(=O)c2cccs2)nc2sc(C)cc2c1=O — lower, 7.02%
